Laboratory results: the supplement of paper PMC4604168 (melanoma cell lines)
Some of the results follow. Single values are uncertain, as repeats are few or missing.

Assays:
Assay in all cases: cell count relative to DMSO control; melanoma cells; higher = more viable cells
Details in all cases: library dose: standard library concentration; 72 h
SkMel30 = system: SkMel30
SkMel5 = system: SkMel5
UACC257 = system: UACC257
UACC62 = system: UACC62
WM115 = system: WM115
WM1716 = system: WM1716
WM1745 = system: WM1745
WM3526 = system: WM3526
WM3619 = system: WM3619
WM451Lu = system: WM451Lu
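Also: cells treated in 1,536-well plates, then fixed and DAPI-stained, with nuclei counted from automated high-throughput microscope images.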

| Structure (SMILES) | cell count (SkMel30) | cell count (SkMel5) | cell count (UACC257) | cell count (UACC62) | cell count (WM115) | cell count (WM1716) | cell count (WM1745) | cell count (WM3526) | cell count (WM3619) | cell count (WM451Lu) |
| --- | --- | --- | --- | --- | --- | --- | --- | --- | --- | --- |
| COc1cc(N2CCC(N3CCN(C)CC3)CC2)ccc1Nc1ncc(Cl)c(Nc2ccccc2S(=O)(=O)C(C)C)n1 + Cn1cc(/C=C2\C(=O)Nc3cccnc32)c2ccccc21 [GW441756] (first compound 0.4 µM, partner dose 2 µM) | 88.8% | 41.4% | 74.7% | 85.2% | 91.9% | 89.7% | 74.2% | 61.6% | 94.1% | 91.4% |
| CCN(CC)CCCCNc1ncc2cc(-c3cc(OC)cc(OC)c3)c(NC(=O)NC(C)(C)C)nc2n1 + O=C1NC(=O)/C(=C/c2ccc(-c3ccc(F)cc3O)o2)S1 [AS252424] (first compound 0.5 µM, partner dose 5 µM) | 90.2% | 90.8% | 99.2% | 111% | 85.8% | 126% | 80.5% | 80.5% | 90.5% | 62.4% |
| COc1ccc2c(c1)CCC1C2CCC2(C)C(NCCCCCCN3C(=O)C=CC3=O)CCC12 (stereo not given) + COc1ccc(COc2ccc(Cc3cnc(N)nc3N)cc2OC)cc1 [GW2580] (first compound 2 µM, partner dose 5 µM) | 76.2% | 85.5% | 84.9% | 91.5% | 76.2% | 87.7% | 62.7% | 79.3% | 106% | 91.5% |
| COc1cc2ncnc(Nc3ccc(Oc4ccccc4)cc3)c2cc1OC + c1cc(-c2cnn3cc(-c4ccc(OCCN5CCCCC5)cc4)cnc23)ccn1 [Dorsomorphin] (first compound 10 µM, partner dose 2 µM) | 75.9% | 51.7% | 49.7% | 64.5% | 44.9% | 67.3% | 56.3% | 65.5% | 56.2% | 64.7% |
| CCN(CC)CCCCNc1ncc2cc(-c3cc(OC)cc(OC)c3)c(NC(=O)NC(C)(C)C)nc2n1 + CC(C)CCN1c2nc(Nc3cc(F)c(O)c(F)c3)ncc2N(C)C(=O)C1C [BID1870] (first compound 0.5 µM, partner dose 1 µM) | 78.9% | 66.8% | 81.3% | 69.2% | 95.7% | 67.6% | 96.3% | 59.5% | 70.8% | 74.8% |
| O=S(=O)(c1ccccc1)N(CC(F)(F)F)c1ccc(C(O)(C(F)(F)F)C(F)(F)F)cc1 + O=C1NC(=O)/C(=C/c2ccc(-c3ccc(F)cc3O)o2)S1 [AS252424] (first compound 7 µM, partner dose 5 µM) | 86.4% | 64.3% | 91.2% | 96.9% | 101% | 149% | 61.6% | 72.3% | 56.2% | 94% |
| Cc1cc([N+](=O)[O-])ccc1NS(=O)(=O)c1cc(Cl)ccc1Cl + CC(C)CCN1c2nc(Nc3cc(F)c(O)c(F)c3)ncc2N(C)C(=O)C1C [BID1870] (first compound 5 µM, partner dose 1 µM) | 72.1% | 75% | 72.2% | 75.9% | 91.7% | 61% | 96.2% | 61.2% | 86.1% | 90.6% |
| O=C(O)C(=O)Nc1sc2c(c1C(=O)O)CCNC2 + CCCCCCCCCCCC1=C(O)C(=O)C=C(O)C1=O [Embelin] (first compound 8.33333 µM, partner dose 6 µM) | 102% | 84.3% | 78.2% | 120% | 80.8% | 88.5% | 71.2% | 88.9% | 83.6% | 89.6% |
| CCN(CC)CCCCNc1ncc2cc(-c3cc(OC)cc(OC)c3)c(NC(=O)NC(C)(C)C)nc2n1 + O=C(O)C(=O)Nc1sc2c(c1C(=O)O)CCNC2 [TCS401] (first compound 0.5 µM, partner dose 8.33333 µM) | 118% | 68.8% | 106% | 113% | 81.9% | 113% | 109% | 75% | 137% | 96.9% |
| COc1ccc(-c2ccc3c(N4CCOCC4)nc(N4C[C@@H](C)O[C@@H](C)C4)nc3n2)cc1CO + Oc1cc(-c2nc(-c3ccccc3)[nH]c2-c2ccncc2)ccc1Cl [L779450] (first compound 0.1 µM, partner dose 1 µM) | 73% | 62.9% | 91.6% | 72.2% | 56.1% | 88% | 58.3% | 50% | 64.2% | 55.8% |
| COc1ccc2c(c1)CCC1C2CCC2(C)C(NCCCCCCN3C(=O)C=CC3=O)CCC12 (stereo not given) + c1cc(-c2cnn3cc(-c4ccc(OCCN5CCCCC5)cc4)cnc23)ccn1 [Dorsomorphin] (first compound 2 µM, partner dose 2 µM) | 83.5% | 71.4% | 59.4% | 52.9% | 68.8% | 86.1% | 49.2% | 94% | 45.4% | 88% |
| COC(=O)c1sccc1S(=O)(=O)Nc1ccc(Nc2ccccc2)cc1OC + Oc1cc(-c2nc(-c3ccccc3)[nH]c2-c2ccncc2)ccc1Cl [L779450] (first compound 5 µM, partner dose 1 µM) | 84% | 72.2% | 97.1% | 74.5% | 58.2% | 76.1% | 58.9% | 43.1% | 104% | 52.9% |
| COc1cc2ncnc(Nc3ccc(Oc4ccccc4)cc3)c2cc1OC + Oc1cc(-c2nc(-c3ccccc3)[nH]c2-c2ccncc2)ccc1Cl [L779450] (first compound 10 µM, partner dose 1 µM) | 98.5% | 75.5% | 92.6% | 52.2% | 46.4% | 70.1% | 49.1% | 51% | 54.8% | 52.1% |
| COc1ccc(-c2ccc3c(N4CCOCC4)nc(N4C[C@@H](C)O[C@@H](C)C4)nc3n2)cc1CO + O=C1NC(=O)/C(=C/c2ccc(-c3ccc(F)cc3O)o2)S1 [AS252424] (first compound 0.1 µM, partner dose 5 µM) | 68.7% | 68.1% | 110% | 126% | 84% | 106% | 76% | 76% | 62% | 75.9% |
| COc1cc2ncnc(Nc3ccc(Oc4ccccc4)cc3)c2cc1OC + CCCCCCCCCCCC1=C(O)C(=O)C=C(O)C1=O [Embelin] (first compound 10 µM, partner dose 6 µM) | 99.2% | 70.2% | 99.2% | 99% | 85.8% | 91.1% | 62.6% | 67.2% | 90.4% | 95.9% |
| Oc1cc(-c2nc(-c3ccccc3)[nH]c2-c2ccncc2)ccc1Cl + O=C(O)C(=O)Nc1sc2c(c1C(=O)O)CCNC2 [TCS401] (first compound 1 µM, partner dose 8.33333 µM) | 121% | 70.6% | 99.4% | 71% | 52.9% | 76.6% | 53.7% | 55.8% | 82.9% | 46% |
| N#Cc1c(O)c2c(-c3ccc(-c4ccccc4O)cc3)csc2[nH]c1=O + COc1ccc(COc2ccc(Cc3cnc(N)nc3N)cc2OC)cc1 [GW2580] (first compound 10 µM, partner dose 5 µM) | 122% | 89.3% | 90.5% | 126% | 95.5% | 99.1% | 79.1% | 78.3% | 95.8% | 94.8% |
| COc1ccc(-c2ccc3c(N4CCOCC4)nc(N4C[C@@H](C)O[C@@H](C)C4)nc3n2)cc1CO + COc1cc(N2CCC(N3CCN(C)CC3)CC2)ccc1Nc1ncc(Cl)c(Nc2ccccc2S(=O)(=O)C(C)C)n1 [NVP-TAE684] (first compound 0.1 µM, partner dose 0.4 µM) | 91.5% | 44.7% | 79.5% | 56.3% | 55.2% | 75% | 51.4% | 47.4% | 53.4% | 51.7% |
| Cc1cc([N+](=O)[O-])ccc1NS(=O)(=O)c1cc(Cl)ccc1Cl + O=c1cc(-c2cccc3c2Sc2ccccc2S3)oc(N2CCOCC2)c1 [KU55933] (first compound 5 µM, partner dose 5 µM) | 73.3% | 76.4% | 73.6% | 73.4% | 77.7% | 80.9% | 67.2% | 71.7% | 57.5% | 90.8% |
| Cc1cc([N+](=O)[O-])ccc1NS(=O)(=O)c1cc(Cl)ccc1Cl + CCCCCCCCCCCC1=C(O)C(=O)C=C(O)C1=O [Embelin] (first compound 5 µM, partner dose 6 µM) | 90.2% | 103% | 68.8% | 92.8% | 101% | 97.5% | 70.6% | 78.2% | 67% | 85.9% |
| CCN(CC)CCCCNc1ncc2cc(-c3cc(OC)cc(OC)c3)c(NC(=O)NC(C)(C)C)nc2n1 + COc1ccc(COc2ccc(Cc3cnc(N)nc3N)cc2OC)cc1 [GW2580] (first compound 0.5 µM, partner dose 5 µM) | 84.2% | 83.3% | 88.3% | 106% | 95.4% | 99.2% | 99.4% | 92.2% | 84.4% | 76.2% |
| COc1ccc(-c2ccc3c(N4CCOCC4)nc(N4C[C@@H](C)O[C@@H](C)C4)nc3n2)cc1CO + COc1ccc(COc2ccc(Cc3cnc(N)nc3N)cc2OC)cc1 [GW2580] (first compound 0.1 µM, partner dose 5 µM) | 80.2% | 77.1% | 92% | 151% | 88.1% | 109% | 103% | 99.5% | 66.4% | 115% |
| COc1ccc2c(c1)CCC1C2CCC2(C)C(NCCCCCCN3C(=O)C=CC3=O)CCC12 (stereo not given) + CCN(CC)CCCCNc1ncc2cc(-c3cc(OC)cc(OC)c3)c(NC(=O)NC(C)(C)C)nc2n1 [PD173074] (first compound 2 µM, partner dose 0.5 µM) | 85.7% | 75.1% | 79.7% | 53% | 77.7% | 71.6% | 97.1% | 78.4% | 61.7% | 69.8% |
| COc1ccc(-c2ccc3c(N4CCOCC4)nc(N4C[C@@H](C)O[C@@H](C)C4)nc3n2)cc1CO + Cn1cc(/C=C2\C(=O)Nc3cccnc32)c2ccccc21 [GW441756] (first compound 0.1 µM, partner dose 2 µM) | 79.9% | 55.1% | 90.8% | 90.5% | 89% | 90.1% | 73.5% | 82.9% | 64.2% | 84.5% |
| N#Cc1c(O)c2c(-c3ccc(-c4ccccc4O)cc3)csc2[nH]c1=O + Cn1cc(/C=C2\C(=O)Nc3cccnc32)c2ccccc21 [GW441756] (first compound 10 µM, partner dose 2 µM) | 100% | 69% | 89.3% | 73% | 94.7% | 98.6% | 93.9% | 95.2% | 83.7% | 104% |
| Cn1cc(/C=C2\C(=O)Nc3cccnc32)c2ccccc21 + CCCCCCCCCCCC1=C(O)C(=O)C=C(O)C1=O [Embelin] (first compound 2 µM, partner dose 6 µM) | 89.8% | 61.1% | 67.9% | 86.3% | 94.5% | 80.9% | 73.5% | 93.8% | 78.5% | 82.3% |
| COc1ccc(-c2ccc3c(N4CCOCC4)nc(N4C[C@@H](C)O[C@@H](C)C4)nc3n2)cc1CO + CCCCCCCCCCCC1=C(O)C(=O)C=C(O)C1=O [Embelin] (first compound 0.1 µM, partner dose 6 µM) | 74.6% | 70.3% | 94.1% | 92.9% | 73.4% | 85.6% | 104% | 79.1% | 94.4% | 91.2% |
| N#Cc1c(O)c2c(-c3ccc(-c4ccccc4O)cc3)csc2[nH]c1=O + c1cc(-c2cnn3cc(-c4ccc(OCCN5CCCCC5)cc4)cnc23)ccn1 [Dorsomorphin] (first compound 10 µM, partner dose 2 µM) | 97.2% | 71.7% | 85.4% | 113% | 80.8% | 101% | 69.9% | 88.5% | 94% | 80.9% |
